# In all, about 33,000 sequences were measured (“E-score (-0.5 to 0.5)”: median about -0.054, highest 2% from about 0.35 on). The list shows a part of the results.
# Biological target: T1, Stb5 (UniProt P38699)
# T1 sequence: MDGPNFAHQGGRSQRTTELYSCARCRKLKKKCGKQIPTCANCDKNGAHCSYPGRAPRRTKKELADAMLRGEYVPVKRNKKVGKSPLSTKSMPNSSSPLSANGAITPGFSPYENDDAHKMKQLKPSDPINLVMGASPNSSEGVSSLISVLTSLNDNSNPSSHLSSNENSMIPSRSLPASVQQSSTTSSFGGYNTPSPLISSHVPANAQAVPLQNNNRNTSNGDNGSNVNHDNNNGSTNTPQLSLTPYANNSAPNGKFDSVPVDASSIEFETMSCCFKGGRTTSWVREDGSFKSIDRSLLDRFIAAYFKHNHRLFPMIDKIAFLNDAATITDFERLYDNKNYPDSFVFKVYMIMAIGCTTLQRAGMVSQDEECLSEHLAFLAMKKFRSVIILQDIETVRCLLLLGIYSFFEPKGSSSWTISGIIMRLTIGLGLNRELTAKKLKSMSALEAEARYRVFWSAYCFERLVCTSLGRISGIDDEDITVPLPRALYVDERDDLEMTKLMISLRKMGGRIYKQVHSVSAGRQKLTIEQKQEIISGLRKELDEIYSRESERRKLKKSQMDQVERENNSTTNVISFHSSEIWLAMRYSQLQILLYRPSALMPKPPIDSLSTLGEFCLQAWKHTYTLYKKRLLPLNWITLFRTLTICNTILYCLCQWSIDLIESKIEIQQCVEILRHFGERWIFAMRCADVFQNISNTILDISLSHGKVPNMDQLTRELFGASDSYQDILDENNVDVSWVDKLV
# Assay: PBM E-score (8-mer binding enrichment) (E-score (-0.5 to 0.5)); higher = stronger / more preferred TF binding; most listed sequences are background and not binding sites
# Conditions: protein concentration: 200 nM; construct: GST-full length
# Protocol: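 Universal 'all 10-mer' protein binding microarrays (Agilent AMADID 015681) probed with GST-tagged S. cerevisiae TFs (full-length or DBD) made by in vitro transcription/translation (PURExpress), about 100-200 nM. Bound TF was detected with fluorescent anti-GST. Each ungapped 8-mer (which stands for itself and its reverse complement) is scored by the PBM enrichment score (E-score), a modified Wilcoxon-Mann-Whitney statistic from -0.5 to +0.5, computed with the Universal PBM Analysis Suite. Scale: above 0.35 generally sequence-specific binding.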
row,Sequence,PBM E-score
1,CGCGACCC,0.0367
2,TCGACAGA,-0.171
3,AATGGTCA,-0.0794
4,GCTGAATA,-0.241
5,ACGGAAGT,0.26
6,CGGATGTC,0.223
7,CCGTCACC,0.289
8,ACATCAGG,-0.122
9,AACGTTCT,-0.263
10,ATGCCATA,-0.249
11,AGAGGGCT,-0.135
12,ATTTAGGG,0.0429
13,ACGCATTA,-0.204
14,AGGATACT,-0.0446
15,ACCAGCAT,-0.24
16,AGAATAGA,-0.103
17,AAGCCGCC,0.245
18,AGAGTACC,-0.0547
19,ACTAAGGG,-0.00506
20,AATACCTC,-0.017
21,CTTCTCTA,-0.266
22,AGCAGTTA,-0.194

row,Sequence,PBM E-score
1,AGAACCAT,-0.165
2,TAATTTAA,0.00767
3,GATCTGCA,0.0505
4,CATAGTCC,0.0471
5,TCTTCTAA,0.00248
6,ACGCAAGC,-0.191
7,ATGATCAC,-0.193
8,ACGCCGCT,0.383
9,CACCGTGA,0.311
10,AAACCTAC,-0.153
11,ACCCGCAG,0.223
12,AACATATT,-0.109
13,GGTCATTA,0.183
14,AACACCAT,0.0943
15,ACAAAAAT,0.0108
16,AGAAGTGA,-0.118
17,ATCTTAGC,-0.174
18,CGGCGTAC,0.206
19,ATAACGCG,0.0524
20,AACGCAAA,-0.00547
21,GCATTAAA,-0.0153
22,CCGAAGGC,0.146

row,Sequence,PBM E-score
1,AGATGGCC,0.00411
2,GATAGCGC,0.0868
3,ACTACTCG,0.00137
4,GGATGAAA,0.0362
5,CTTCTAGC,0.0248
6,CATGGAAC,-0.196
7,CTCAAGAA,-0.119
8,CCACTGCC,-0.142
9,CGAGGCAA,-0.086
10,CGAATAAA,-0.0452
11,TCACTCGA,-0.204
12,ATCGGTAA,0.277
13,AGGCACAG,-0.302
14,AGCCTTGA,-0.203
15,CACGGGCG,0.0573
16,CTAGGGTC,-0.203
17,CAGACACA,-0.0304
18,AGTTGCTA,-0.0374
19,CTGAGGCC,0.133
20,TGCTAGAA,-0.0141
21,GTCTCCTA,-0.14
22,ATTAACTG,-0.0295

row,Sequence,PBM E-score
1,GATCGGAA,0.133
2,GATAATGC,0.0588
3,GAATAAGC,0.0338
4,ACAAAGAA,-0.00751
5,AATCAGCT,-0.203
6,CAAACCCC,0.336
7,CGTGACGC,-0.0945
8,AACAGCGT,0.129
9,CACCCCAC,0.0573
10,AGTGTTGG,-0.188
11,TAGGAAGA,-0.242
12,CGTTGTTA,0.191
13,GAGGCGCC,-0.049
14,CAACTACG,-0.0121
15,CGAGTACG,-0.0874
16,CGCTGGGA,-0.0625
17,AAATATCG,0.151
18,TCTGTAAA,-0.0125
19,ACCAAGGT,0.0176
20,ACCATCCT,-0.215

# Reference: the supplement of paper PMC3334620
